Source: the RNAGym collection of RNA variant scans (doi:10.7554/elife.90254)
Read counts are not given, so values of variants with three or more changes are uncertain.

B1: LINE1-full (parent)
chain: UACGUAGGUGGUUUUCCCCUGAUAGUGCUAAGGGGGCCUGGAAGUUUGGACUGGGCAGAGCUCAACACAGCGUGGCAAAGUGGCUGUGGCUAGACUGCCUCUCUGGAUUCCUCGUCACUCAGCAGGGCAUCUCUGAGAGAAAUGCC

Variants of: B1
Experiment: self-cleavage, relative activity (ratio to wild type); higher = more cleavage; in vitro, sequencing; the parent is a self-cleaving ribozyme

Variant | self-cleavage
UACGUAGGUGGUUUUCCCCUGUUAGUGCUAAGGGGGCCUGGUAGUUUGGACUGGGCAGAGCUCAACACAGCGUGGCAAAGUGGCUGUGGCUAGACUGCCUCUCUGGAUUCCUCGUCACUCAGCAGGGCACCUCUGAGAGAAAUGCC [A22U A42U U130C] | 1.37
UACGUAGGUGGUUUUCCCCUGUUAGUGCUAAGGGGGCCUGGAGGUUUGGACUGGGCAGAGCUCAACACAGCGUGGCAAGGUGGCUGUGGCUAGACUGCCUCUCUGGAUUCCUCGUCACUCAGCAGGGCAUCUCUGAGAGAAAUGCC [A22U A43G A79G] | 0.48
UACGUAGGUGGUUUUCCCCUGUUAGUGCUAAGGGGGCCUGGAGGUUUGGACUGGGCAGAGCUCAACACAGCGUGGCAAAGUGGCUGUGGCUAGACUGCCUCUCUGAAUUCCUCGUCUCUCAGCAGGGCAUCUCUGAGAGGAAUGCC [A22U A43G G106A A117U A140G] | 0.64
UACGUAGGUGGUUUUCCCCUGUUAGUGCUAAGGGGGCCUGGAAGUUUGGGCUGGGCAGAGCUCAACACAGCGUGGCAAAGUGGCUGUGGCUAGACUGCCUCUCUGGAUUCCUCGUCACUCAGCAGGGCAUCUCUGAGAGGAAUGCC [A22U A50G A140G] | 0.65
UACGUAGGUGGUUUUCCCCUGUUAGUGCUAAGGGGGCCUGGAAGUUUGGACUGGGCGGAGCUCAACACAGCGUGGCAAAGUGGCUGUGGUUAGACCGCCUCUCCGGAUUCCUCGUCACUCAGCAGGGCAUCUCUGAGAGAAAUGCC [A22U A57G C90U U96C U104C] | 0
UACGUAGGUGGUUUUCCCCUGUUAGUGCUAAGGGGGCCUGGAAGUUUGGACUGGGCGGAGCUCAACACAGCGCGGCAAAGUGGCUGUGGCUAGACUGCCUCUCUGGAUUCCUUGUCACUCAGCAGGGCAUCUCUGAGAGAAAUGCC [A22U A57G U73C C113U] | 0.87
UACGUAGGUGGUUUUCCCCUGUUAGUGCUAAGGGGGCCUGGAAGUUUGGACUGGGCAGCGCUCAACACAGCGUGGCAAAGUGGCUGUGGCUAGAUUGCCUCUCUGGAUUCCUCGUCACUCAGCAGGGCAUCUCUGAGAGAAAUGCC [A22U A59C C95U] | 0.16
UACGUAGGUGGUUUUCCCCUGUUAGUGCUAAGGGGGCCUGGAAGUUUGGACUGGGCAGAGCUCGGCACAGCGUGGCAAAGUGGCUGUGGCUAGACUGCCUCUCUGGAUUCCUCGUUACUCAGCAGGGCAUCUCUGAGAGAAAUGCC [A22U A64G A65G C116U] | 0.07
UACGUAGGUGGUUUUCCCCUGUUAGUGCUAAGGGGGCCUGGAAGUUUGGACUGGGCAGAGCUCUACACAGCGUGGCAAAGUGGCUGUGACUGGACUGCCUCUCUGGAUUCCUCGUCACUCUGCAGGGCAUCUCUGAGAGAAAUGCC [A22U A64U G89A A92G A121U] | 0.03
UACGUAGGUGGUUUUCCCCUGUUAGUGCUAAGGGGGCCUGGAAGUUUGGACUGGGCAGAGCUCAACGCAGCGUGGCAAAGUGGCAGUGGCUAGACUGCCUCCCUGGGUUCCUCGUCACUCAGCAGGGCAUCUCUGAGAGAAAUGCC [A22U A67G U85A U102C A107G] | 0
UACGUAGGUGGUUUUCCCCUGUUAGUGCUAAGGGGGCCUGGAAGUUUGGACUGGGCAGAGCUCAACACGGCGUGGCAAAGUGGCUGUGGCUAGACUGCCUCUCUGGACUCCUCGUCACUCAGCAGGGCAUCUCUGAGAGAAAUGCC [A22U A69G U108C] | 0.48
UACGUAGGUGGUUUUCCCCUGUUAGUGCUAAGGGGGCCUGGAAGUUUGGACUGGGCAGAGCUCAACACUGCGUGGCAAAGUGGCUGUGGCUAGACUGCCUCUCUGGAUUCCUCGUCACUCGGCAGGGCAUCUCUGAGAGAAAUGCC [A22U A69U A121G] | 0.13
UACGUAGGUGGUUUUCCCCUGUUAGUGCUAAGGGGGCCUGGAAGUUUGGACUGGGCAGAGCUCAACACAGCGUGGCAAAGUGGCUGUGGCUAGACUGCCUCUCUGGAUUCCUCGUCACUCAGCGGGGCAUCUCUGAGGGAAAUGCC [A22U A124G A138G] | 1.89
UACGUAGGUGGUUUUCCCCUGUUAGUGCUAAAGGGGCCUGGAGGUUUGGACUGGGCAGAGCUCAACACAGCGUGGCAAAGUGGCCGUGGCUAGACUGCCCCUCUGGAUUCCACGUCACUCAGCAGGGUAUCUCCGAGAGAAAUGCC [A22U G32A A43G U85C U100C U112A C128U U134C] | 0.12
UACGUAGGUGGUUUUCCCCUGUUAGUGCUAAAGGGGCCUGGAAGUCUGGACUGGGCAGAGCUUAACACAGCGUGGCGAAGUGGCUGUGGCUAGACUGCCUCUCUGGAUUCCUCGUCACUCAGCAGGGCAUCUCUGAGAGAAAUGCC [A22U G32A U46C C63U A77G] | 0.61
UACGUAGGUGGUUUUCCCCUGUUAGUGCUAAGAGGGCCUGGAGGUUUGGACUGGGCAGAGCUCAACACAGCGUGGCAAAGUGGCUGUGGCUAGACUGCCUCUCUGGAUUCCUCGUCACUCAGCAGGGCAUCUCUGAGAGAAAUGCC [A22U G33A A43G] | 1.26
UACGUAGGUGGUUUUCCCCUGUUAGUGCUAAGAGGGCCCGGAGGUUUGGACUGGGCGGAGCUCAACUCAGCGUGGCAAAGUGGCAGUGGCAAGUCUGCCUCUCUGGAUUCCUCGUCACUCAGCAGGGCAUCUCUGAGAGAAAUGCC [A22U G33A U39C A43G A57G A67U U85A U91A A94U] | 0
UACGUAGGUGGUUUUCCCCUGUUAGUGCUAAGGGGGCCUGGAAAUUUGGACUGGGCAGAGCUCAACACAGCGUGGCAAAGUGGCUGUGGCUAGACUGCCUCUCUGGAUUCCUCGUCACACAGCAGGGCAUCUCUGAGAGAAAUGCC [A22U G44A U119A] | 1.68
UACGUAGGUGGUUUUCCCCUGUUAGUGCUAAGGGGGCCUGGAAGUUUGGACUAGGCAGAGCUCAACACAGCGUGGCAAAGUGGCUGUGGCUAGACUGCCUCUCCGGAUUCCUCGUCACUCAGCAGGGCAUCUCUGAGAGAAAUGCC [A22U G53A U104C] | 1.95
UACGUAGGUGGUUUUCCCCUGUUAGUGCUAAGGGGGCCUGGAAGUUUGGACUGGGCAGAGCUCAACACAGCGUGGCAAAGUGGCUAUGGCCAGACUGCCCCUCUGGAUUCCUCGUCACUCAGCAGGGCAUCUCUGAGAGAAAUGCC [A22U G86A U91C U100C] | 0.05

Variant | self-cleavage
UACGUAGGUGGUUUUCCCCUGUCAGUGCUAAGGGGGCCUGGAAGUCUGGACUGGGCAGAGCUCAACACAGCGUGGCAAAGUGGCUGUGGCUAGACUGCCUCUCUGGAUUCCUCGUCACUCAGCAGGGCAUCUCUGAGAGAAAUGCC [A22U U23C U46C] | 1.13
UACGUAGGUGGUUUUCCCCUGUUAGCGCUAAGGGGGCCUGGAAGUUUGGACUGGGCAGAGCUCAACACAGCGUGGCAAAGUGGCUGUGGCCAGACUGCCUCUCUGGAUUCCUCGUCACUCAGCAGGGCAUCUCUGAGAGAAAUGCC [A22U U26C U91C] | 1.95
UACGUAGGUGGUUUUCCCCUGUUAGCGCUAAGGGGGCCUGGAAGUUUGGACUGGGCAGAGCUCAACACAGCGUGGCAAAGUGGCUGUGGCUAGACUGCCUCUCUGGAUUCCUCGUCACCCAGCAGGGCAUCUCUGAGAGAAAUGCC [A22U U26C U119C] | 1.77
UACGUAGGUGGUUUUCCCCUGUUAGUGCAAAGGGGGCCUGGAAGUUUGGACUGGGCAGAGCUCAACUCAGCGUGGCAAAGUGGCUGUGGCUAGACUGCCUCUCUGGAUUCCUCGUCACUCAGCAGGGCAUCUCUGAGAGAAAUGCC [A22U U29A A67U] | 0.28
UACGUAGGUGGUUUUCCCCUGUUAGUGCUAAGGGGGCCCGGAAGUUUGGACUGGGCAGAGCUCAGCACAGCGUGGCAAAGUGGCUGUGGCUAGACUGCCUCUCUGGAUUCCUCGUCACUCAGCAGGGCAUCUCUGAGAGAAGUGCC [A22U U39C A65G A142G] | 0.09
UACGUAGGUGGUUUUCCCCUGUUAGUGCUAAGGGGGCCCGGAAGUUUGGACUGGGCAGAGCUCAACACAGCGUGGCAAAGUGGCUGUGGCUAGACUGCCUCUCUGGAUUCCUCGUCACUAAGCAGGGCAUCUCUGAGAGAAAUGCC [A22U U39C C120A] | 0.79
UACGUAGGUGGUUUUCCCCUGUUAGUGCUAAGGGGGCCCGGAAGUAUGGACUGGGCAGGGCUCAACACAGCGUGGCAAAGUGGCUGUGGCUAGACUGCCUCUCUGGAUUCCUCGUCACUCAGCAGGGCAUCUCUGAGAGAAAUGCC [A22U U39C U46A A59G] | 0.14
UACGUAGGUGGUUUUCCCCUGUUAGUGCUAAGGGGGCCCGGAAGUUUGGACUGGGCAGAGCUCAACACAGCGUGGCAAAGUGGCUGUGGCUAGACUGCCUCUCUGGAUUCCUCGUCACCCAGCAGGGCACCUCUGAGAGAAAUGCC [A22U U39C U119C U130C] | 1.18
UACGUAGGUGGUUUUCCCCUGUUAGUGCUAAGGGGGCCUGGAAGCUUGGACUGGGCAGAGCUCAACACAGCGUGGCAAAGUGGCUGUGGCUAGACUGCCUCUCUGGAUUCCUCGUCACCCAGCAGGGCAUCUCUGAGAGAAAUGCC [A22U U45C U119C] | 1.62
UACGUAGGUGGUUUUCCCCUGUUAGUGCUAAGGGGGCCUGGAAGGUUGGACUGGGCAGAGCUCAACACAGCGUGGCAAAGUGGCUGUGGCUAGACUGCCCCUCUGGAUUCCUCGUCACUCAGCAGGGCAUCUCUGAGAGAAAUGCC [A22U U45G U100C] | 0.73
UACGUAGGUGGUUUUCCCCUGUUAGUGCUAAGGGGGCCUGGAAGUAUGGACUGGGCAGAGCUCAACACAGCGUGGCAAAGUGGCUGUGGCUAGACAGCCCCCCUGGAUUCCUCGUCACUCAGCAGGGCAUCUCUGAGAGAAAUGCC [A22U U46A U96A U100C U102C] | 0.11
UACGUAGGUGGUUUUCCCCUGUUAGUGCUAAGGGGGCCUGGAAGUCUGGACUGGACAGAGCUCAACACAGCGUGGCAAAGUGGCUGUGGCUAGGCUGCCUCUCUGGAUUCCUCGUCACUCAGCAGGGCAUCUCUGAGGGAAAUGCC [A22U U46C G55A A94G A138G] | 0.12
UACGUAGGUGGUUUUCCCCUGUUAGUGCUAAGGGGGCCUGGAAGUUUGGACAGGGCUGAGCUCAGCACAGCGUGGCAAAGUGGCUGUGGCUAGACUGCCUCUCUGGAUUCCUCGUCACUCAGCAGGGCAUCUCUGAGAGAAAUGCC [A22U U52A A57U A65G] | 0.06
UACGUAGGUGGUUUUCCCCUGUUAGUGCUAAGGGGGCCUGGAAGUUUGGACAGGGCAGAGCUCAACACAGCGUGGCAAAGUGGCUGUGGCUAGACUGCCUCUCUGGAUUCCUCGUCACUCAGCAGGGCAUCCCUGAGAGAAAUGCC [A22U U52A U132C] | 0.78
UACGUAGGUGGUUUUCCCCUGUUAGUGCUAAGGGGGCCUGGAAGUUUGGACUGGGCAGAGCACAACACAGCGCGGCAAAGUGGCUGUGGCUAGACUGCCCCUCUGGAUUCCUCGUCACUCAGCAGGGCAUCUCUGAGUGAAAUGCC [A22U U62A U73C U100C A138U] | 0.11
UACGUAGGUGGUUUUCCCCUGUUAGUGCUAAGGGGGCCUGGAAGUUUGGACUGGGCAGAGCACAACACAGCGUGGCAAAGCGGCUGUGGCUAGACUGCCUCUCUGGAUUCCUCGUCACUCAGCAGGGCAUCUCUGAGAGAAAUGCC [A22U U62A U81C] | 0.02
UACGUAGGUGGUUUUCCCCUGUUAGUGCUAAGGGGGCCUGGAAGUUUGGACUGGGCAGAGCUCAACACAGCGCGGCAAAGUGGCUGUGGCUAGACUGCCUCUCUGGAUUCCUCGUCACUCAGCAUGGCAUCUCUGAGAGAGAUGCC [A22U U73C G125U A141G] | 0.66
UACGUAGGUGGUUUUCCCCUGUUAGUGCUAAGGGGGCCUGGAAGUUUGGACUGGGCAGAGCUCAACACAGCGUGGCAAAGUGGCUGUGGCAAGACUGCCUCUCUGGAUUCCUCGUCACUCAGCAGGGCGUCUCUGAGAGAGAUACC [A22U U91A A129G A141G G144A] | 0.62
UACGUAGGUGGUUUUCCCCUGUUAGUGCUAAGGGGGCCUGGAAGUUUGGACUGGGCAGAGCUCAACACAGCGUGGCAAAGUGGCUGUGGCAAGACCGCCUCUCUGGAUUCCUCGUCACUCAGCAGGGCAUCUCUGAGAGAAAUGCC [A22U U91A U96C] | 0
